Experimental findings from US20240150432A1 (SHANGHAI CELGEN BIO PHARMACEUTICAL, published 2024) are described below.

The target of test [1] is T1, Recombinant human TNFα (human, UniProt P01375 part only). Briefly: cell-based or functional assay.
For test [2], the target named is T1, Recombinant human TNFα. Briefly: ELISA, TNFα coated, fusion protein titrated, anti-human IgG Fc detection. As to the method: Recombinant human TNFα (Novoprotein) was dissolved in PBS (pH 7.4) to a final concentration of 0.8 μg/mL and added with 50 μL/well recombinant protein in a 96 well ELISA plate, and stored overnight in a refrigerator at 4° C. The next day, ELISA plates were washed three times with PBST (PBS containing 0.05% Tween-20), and 100 μL/well of blocking solution of PBST containing 3% BSA was added. ELISA plates were placed in an incubator at 37° C. for 1 hour. The fusion proteins were diluted in the binding solution of PBST containing 1% BSA to prepare three-fold serial dilutions. The blocking solution was removed and diluted proteins were added at 50 μL/well, respectively. The reaction was carried out for 1 hour at 37° C. The solution was poured off, and the ELISA plate was washed three times with PBST. Then 50 μL/well of secondary antibody (alkaline phosphatase-conjugated sheep-anti-human IgG Fc antibody, Jackson ImmunoResearch Lab) was added and the reaction was performed in a 37° C. incubator for 1 hour. The chromogenic antibody was poured out, and 200 μL/well PBST cleaning solution was added to the ELISA plate. The ELISA plate was placed on a horizontal shaker for 5 minutes at 100 RPM, the cleaning solution was poured out, and the cleaning was repeated for 4 times. […] An enzyme-linked immunosorbent assay was used to read the plate at a wavelength of 405 nm/490 nm.
A general note: ELISA stands for enzyme-linked immunosorbent assay.

T1 sequence (P01375 77-233 limits assumed): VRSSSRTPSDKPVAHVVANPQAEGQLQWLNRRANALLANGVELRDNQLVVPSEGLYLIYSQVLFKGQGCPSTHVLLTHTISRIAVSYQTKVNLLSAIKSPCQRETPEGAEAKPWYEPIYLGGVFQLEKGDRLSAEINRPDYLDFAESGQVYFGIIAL

B1: TNFR2-TACI-Fc fusion protein (Fc fusion)
chain: LPAQVAFTPYAPEPGSTCRLREYYDQTAQMCCSKCSPGQHAKVFCTKTSDTVCDSCEDSTYTQLWNWVPECLSCGSRCSSDQVETQACTREQNRICTCRPGWYCALSKQEGCRLCAPLRKCRPGFGVARPGTETSDVVCKPCAPGTFSNTTSSTDICRPHQICNVVAIPGNASMDAVCTSTSPTRSMAPGAVHLPQPVSTRSQHTQPTPEPSTAPSTSFLLPMGPSPPAEGSTGDSLSCRKEQGKFYDHLLRDCISCASICGQHPKQCAYFCENKLR[human IgG1 Fc not given here]
Take B1: the “EC50 against TNFα-induced apoptosis in L929 cells” value with Recombinant human TNFα [1] was 0.023 µg/mL.

B2: TNFR2-BAFFR-Fc fusion protein (Fc fusion)
chain: LPAQVAFTPYAPEPGSTCRLREYYDQTAQMCCSKCSPGQHAKVFCTKTSDTVCDSCEDSTYTQLWNWVPECLSCGSRCSSDQVETQACTREQNRICTCRPGWYCALSKQEGCRLCAPLRKCRPGFGVARPGTETSDVVCKPCAPGTFSNTTSSTDICRPHQICNVVAIPGNASMDAVCTSTSPTRSMAPGAVHLPQPVSTRSQHTQPTPEPSTAPSTSFLLPMGPSPPAEGSTGDDAPAPTPCVPAECFDLLVRHCVACGLLRTPRPKPA[human IgG1 Fc not given here]
Take B2: the EC50 with Recombinant human TNFα [2] was found to be 0.189 µg/mL.

B3: TNFR2-BCMA-Fc fusion protein (Fc fusion)
chain: LPAQVAFTPYAPEPGSTCRLREYYDQTAQMCCSKCSPGQHAKVFCTKTSDTVCDSCEDSTYTQLWNWVPECLSCGSRCSSDQVETQACTREQNRICTCRPGWYCALSKQEGCRLCAPLRKCRPGFGVARPGTETSDVVCKPCAPGTFSNTTSSTDICRPHQICNVVAIPGNASMDAVCTSTSPTRSMAPGAVHLPQPVSTRSQHTQPTPEPSTAPSTSFLLPMGPSPPAEGSTGDGQCSQNEYFDSLLHACIPCQLRCSSNTPPLTCQRYCNASVTNSVKGTNA[human IgG1 Fc not given here]
Regarding B3, the “EC50 against TNFα-induced apoptosis in L929 cells” value with Recombinant human TNFα [1] came out at 0.027 µg/mL. Besides, the EC50 with Recombinant human TNFα [2] was found to be 0.046 µg/mL.

One may read the EC50 as the concentration giving half of the maximal effect.
